At least one read-out could not be matched to a standard name with certainty. Some entries repeat one wording, which the source may state once for all of them.
System: human erythropoietin (hEPO) mRNA
Assay: Animal study: hEPO mRNA LNPs given to mice by tail vein injection, serum hEPO by ELISA kit, expression relative to MC3 LNPs
Assay type: in vivo
Conditions: hEPO mRNA LNP, 0.5 mg/kg, female ICR mice, blood sampled e.g. 6 hours post administration

CCCCCCCCCCCCCCCC(=O)OCC(CCCCN(CCO)C1CCCCCC1)COC(=O)CC(CCCCCC)CCCCCCCC (stereo not drawn) [Compound 87]
Expression over MC3: B (≥1 and <2)

CCCCCCCCCCCCCCCC(=O)OCC(CCCCN(CCO)C1CCCCCCC1)COC(=O)CC(CCCCCC)CCCCCCCC (stereo not drawn) [Compound 88]
Expression over MC3: B (≥1 and <2)

CCCCC/C=C\C/C=C\CCCCCCCC(=O)OCC(CCCCN(CCO)C1CCC1)COC(=O)CC(CCCCCC)CCCCCCCC (stereo not drawn) [Compound 89]
Expression over MC3: B (≥1 and <2)

CCCCC/C=C\C/C=C\CCCCCCCC(=O)OCC(CCCCN(CCO)C1CCCC1)COC(=O)CC(CCCCCC)CCCCCCCC (stereo not drawn) [Compound 90]
Expression over MC3: C (≥0.1 and <1)

CCCCC/C=C\C/C=C\CCCCCCCC(=O)OCC(CCCCN(CCO)C1CCCCCC1)COC(=O)CC(CCCCCC)CCCCCCCC (stereo not drawn) [Compound 91]
Expression over MC3: B (≥1 and <2)

CCCCCCCCCCC(=O)OCC(CCCCN(CCO)C1CCCCCC1)COC(=O)CC(CCCCCC)CCCCCCCC (stereo not drawn) [Compound 92]
Expression over MC3: A (≥2)

CCCCCCCCCCC(=O)OCC(CCCCN(CCO)C1CCCCCCC1)COC(=O)CC(CCCCCC)CCCCCCCC (stereo not drawn) [Compound 93]
Expression over MC3: C (≥0.1 and <1)

CCCCCCCCCCC(=O)OCC(CCCCN(CC=C(C)C)CCO)COC(=O)CC(CCCCCC)CCCCCCCC (stereo not drawn) [Compound 94]
Expression over MC3: A (≥2)

CCCCCCCCCCCCCCCC(=O)OCC(CCCCN(CCO)C1CCC1)COC(=O)CC(CCCCCC)CCCCCCCC (stereo not drawn) [Compound 98]
Expression over MC3: B (≥1 and <2)

CCCCCCCCCCCCCCCC(=O)OCC(CCCCN(CCO)C1CCCC1)COC(=O)CC(CCCCCC)CCCCCCCC (stereo not drawn) [Compound 99]
Expression over MC3: B (≥1 and <2)

CCCCC/C=C\C/C=C\CCCCCCCC(=O)OCC(CCCCN(CCO)C1CCCCC1)COC(=O)CC(CCCCCC)CCCCCCCC (stereo not drawn) [Compound 100]
Expression over MC3: B (≥1 and <2)

CCCCC/C=C\C/C=C\CCCCCCCC(=O)OCC(CCCCN(CCO)C1CCCCCCC1)COC(=O)CC(CCCCCC)CCCCCCCC (stereo not drawn) [Compound 101]
Expression over MC3: B (≥1 and <2)

CCCCCCCCC(CCCCCC)COC(=O)CCOCC(CN(CCC)CCN(CCO)C1CCCCCC1)OCCC(=O)OCC(CCCCCC)CCCCCCCC (stereo not drawn) [Compound 106]
Expression over MC3: A (≥2)

CCCCCCCCC(CCCCCC)COC(=O)CCOCC(CN(CCCCCC)CCN(CCO)C1CCCCCC1)OCCC(=O)OCC(CCCCCC)CCCCCCCC (stereo not drawn) [Compound 107]
Expression over MC3: B (≥1 and <2)

CCCCCCCCCC(CCCCC)COC(=O)CCOCC(CN(CCO)C1CCC1)OCCC(=O)OCC(CCCCCC)CCCCCCCC (stereo not drawn) [Compound 108]
Expression over MC3: D (<0.1)

CCCCCCCCC(CCCCCC)CC(=O)OCC(CCCCN(CCN(CCO)CCCC)C1CCC1)COC(=O)CC(CCCCCC)CCCCCCCC (stereo not drawn) [Compound 109]
Expression over MC3: A (≥2)

CCCCCCCCC(CCCCCC)CC(=O)OCC(CCCCN(CCN(CCO)CCCCC)C1CCC1)COC(=O)CC(CCCCCC)CCCCCCCC (stereo not drawn) [Compound 110]
Expression over MC3: A (≥2)

CCCCCCCCC(CCCCCC)CC(=O)OCC(CCCCN(CCN(CCO)CCCCCC)C1CCC1)COC(=O)CC(CCCCCC)CCCCCCCC (stereo not drawn) [Compound 111]
Expression over MC3: B (≥1 and <2)

— patent US11964052B2, “Lipid compounds and lipid nanoparticle compositions” (SUZHOU ABOGEN BIOSCIENCES CO., LTD., priority 2021, dated 2024)
